Hit rate of the full screen: of about 310,000 compounds, about 14,000 (4.5%) showed an effect of 50% or more. The effect is printed as a negative number. This is one part of the list.
Molecular target: human ether-à-go-go-related gene (hERG) potassium channel (human, UniProt Q12809)
Experiment: primary screen, population patch clamp on CHO cells stably expressing hERG
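Note: peak tail current of the secondary pulse compared with the same well before compound.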

human ether-à-go-go-related gene (hERG) potassium channel, sequence (Q12809 whole entry, looked up): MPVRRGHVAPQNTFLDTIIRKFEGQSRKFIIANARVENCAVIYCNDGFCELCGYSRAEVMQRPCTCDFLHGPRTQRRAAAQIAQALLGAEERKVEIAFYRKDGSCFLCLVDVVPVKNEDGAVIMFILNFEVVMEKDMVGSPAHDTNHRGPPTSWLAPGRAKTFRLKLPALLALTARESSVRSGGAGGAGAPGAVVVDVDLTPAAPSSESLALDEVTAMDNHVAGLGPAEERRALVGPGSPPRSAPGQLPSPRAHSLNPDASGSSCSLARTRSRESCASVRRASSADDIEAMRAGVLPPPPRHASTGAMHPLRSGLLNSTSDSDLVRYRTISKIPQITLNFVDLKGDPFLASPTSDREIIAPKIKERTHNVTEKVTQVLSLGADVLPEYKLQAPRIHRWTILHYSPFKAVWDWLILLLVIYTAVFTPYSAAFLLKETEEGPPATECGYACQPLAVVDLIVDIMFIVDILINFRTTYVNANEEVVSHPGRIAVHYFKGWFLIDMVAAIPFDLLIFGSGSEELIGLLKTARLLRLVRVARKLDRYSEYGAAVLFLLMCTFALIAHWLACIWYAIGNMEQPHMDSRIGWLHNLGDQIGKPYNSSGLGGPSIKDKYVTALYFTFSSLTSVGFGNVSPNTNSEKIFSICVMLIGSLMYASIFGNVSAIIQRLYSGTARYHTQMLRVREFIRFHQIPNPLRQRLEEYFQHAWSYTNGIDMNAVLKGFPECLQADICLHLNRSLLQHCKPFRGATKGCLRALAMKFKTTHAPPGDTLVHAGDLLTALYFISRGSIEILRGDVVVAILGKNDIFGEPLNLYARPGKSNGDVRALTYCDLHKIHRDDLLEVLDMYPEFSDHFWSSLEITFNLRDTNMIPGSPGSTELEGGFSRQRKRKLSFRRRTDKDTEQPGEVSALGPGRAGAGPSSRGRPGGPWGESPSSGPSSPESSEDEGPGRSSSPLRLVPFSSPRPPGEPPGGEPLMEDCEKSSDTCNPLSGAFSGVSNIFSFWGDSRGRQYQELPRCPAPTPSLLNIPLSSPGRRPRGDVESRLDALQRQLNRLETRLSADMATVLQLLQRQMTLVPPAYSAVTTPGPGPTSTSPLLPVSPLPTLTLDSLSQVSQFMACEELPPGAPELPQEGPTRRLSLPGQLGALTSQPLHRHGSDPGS

| Structure (SMILES) | hERG current change (%, negative = inhibition) at 10uM |
| --- | --- |
| CC(C)C1N(S(=O)(=O)c2ccccc2)CCN1S(=O)(=O)c1ccccc1 | -21.2% |
| O=C(COC(=O)CSc1ccccc1)NNC(=O)c1ccc([N+](=O)[O-])cc1 | 2.6% |
| O=C(NCCCN1CCOCC1)c1csc2c1CCCC2 | -7.57% |
| CCn1nc(C)c(CNC(=O)CCc2nnc(-c3ccc(C(C)=O)s3)o2)c1C | 1.46% |
| O=C(NNC(=O)c1ccc(Cl)nc1)c1ccncc1 | -5.05% |
| COc1ccc(Cl)cc1-c1nc(-c2ccncc2)no1 | 14% |
| COc1ccc(NC(=O)CCS(=O)(=O)c2ccc(Cl)cc2)cc1 | 2.4% |
| Cc1ccc(OCC(=O)Nc2cccc3c2CCCC3)cc1C | 2.96% |
| ClCCCc1cn(C[C@H]2CC[C@@H]([C@@H]3CC[C@H](Cn4cc(CCCCl)nn4)O3)O2)nn1 | -33.6% |
| CCOC(=O)c1cc(C(C)C)sc1NC(=O)COC(=O)CCS(=O)(=O)c1ccccc1 | -0.5% |
| CS(=O)(=O)N1CCN(c2ccccc2NC(=O)c2ccc(Cl)cc2)CC1 | -3.46% |
| O=C(Cn1cnc2ccccc2c1=O)Nc1nnc(SCc2ccccc2)s1 | -1.67% |
| CC(=O)NC(c1ccccc1)c1cc(Cl)c2cccnc2c1O (stereo not drawn) | -1.29% |
| N/C(=N\OC(=O)/C=C/c1ccccc1)c1ccccn1 | -4% |
| Cc1ccc(N(C(=O)c2csnn2)C(C(=O)NC2CCCC2)c2ccncc2)c(C)c1 (stereo not drawn) | -9.5% |
| CCN(C)Cc1c(C(=O)N2CCc3ccccc3C2)nc2ccc(Cl)cn12 | -31.1% |
| COc1ccccc1COCC(O)CN(Cc1ccco1)Cc1ccccc1O (stereo not drawn) | -27% |
| Cc1c(Cl)cccc1Nc1ccccc1C(=O)O | 16.6% |
| COc1ccc(CCNC(=O)C2CCCN(S(=O)(=O)c3cccc4nonc34)C2)cc1OC (stereo not drawn) | 10.5% |
| CCOc1ccccc1C(=O)NCC(=O)OCC(=O)c1ccc2c(c1)OCCO2 | -3.13% |
| O=C(O)c1cc(N/N=C/c2ccc3c(c2)OCO3)ccc1Cl | 15.1% |
| O=C(Nc1cc(Cl)ccc1N1CCCC1)C1=COCCO1 | -6.1% |
| CCCCNC(=O)COC(=O)CCC(=O)c1ccc(F)cc1 | 5.12% |

| Structure (SMILES) | hERG current change (%, negative = inhibition) at 10uM |
| --- | --- |
| c1cnc(Oc2ccc(-c3nnco3)cc2)cn1 | 13.6% |
| CC(=O)Oc1ccc(-n2c(=O)c3ccccc3c3ccccc3c2=O)cc1 | 8.43% |
| O=C(NCCCN1CCCCC1)c1ccc2c(c1)NC(=O)C(N1CCCCC1)S2 (stereo not drawn) | 11% |
| CCOC(=O)Cn1c(=O)n(CC(=O)OCC)c2ccccc21 | 12.3% |
| CCCc1nc2ccccc2c(=O)n1NC(=O)c1c(O)c2ccccc2n(C)c1=O | 5.64% |
| Cc1ccc(NC(=O)CSCC(=O)O)cc1 | 39.6% |
| Cn1c(N)c(C(=O)N/N=C/c2ccccc2)sc1=S | 19.6% |
| COc1ccc(NC(=O)CS(=O)(=O)c2cn(CC(=O)N(C(C)C)C(C)C)c3ccccc23)c(OC)c1 | -19.3% |
| Cc1ccc(C2(C)NC(=O)N(CC(=O)NCc3ccccc3Cl)C2=O)cc1 (stereo not drawn) | 9.54% |
| O=C(O)COCC(=O)Nc1ccc2c(c1)oc1ccccc12 | 13.5% |
| CC(C)Oc1ccc(S(=O)(=O)N2CCCCC2)cc1NC(=O)CN1C(=O)NC(C)(C2CC2)C1=O (stereo not drawn) | -33.1% |
| Cc1ccc(S(=O)(=O)N2CCN(C(=O)CC(C)(C)C)CC2)cc1 | 4.97% |
| CC(=O)c1cccc(Nc2nc(=O)c3cccnc3s2)c1 | -3.05% |
| CC(C)(C)NC(=O)C(c1ccco1)N(C(=O)c1ccc(CN2CCOCC2)o1)c1ccccc1 (stereo not drawn) | -3.79% |
| O=C(Cc1ccccc1)OCCNC(=O)c1ccc[nH+]c1.[Cl-] | -2.47% |
| O=C1C(=Nc2cccc(Cl)c2)CC(c2ccc(Cl)cc2)N1c1cccc(Cl)c1 (stereo not drawn) | 10.4% |
| O=C(NCCCN1CCOCC1)c1ccc(Sc2ccccc2Cl)c([N+](=O)[O-])c1 | -22.7% |
| Cc1cc(C)cc(NC(=O)CSc2nnc(-c3ccncc3)o2)c1 | -22.8% |
| NC(=O)c1ccc(NC(=O)COC(=O)c2ccc(Cl)nc2)cc1 | 2.17% |
| CCN(CC)S(=O)(=O)c1ccc(OC)c(NC(=O)c2cc3c(=O)n4ccccc4nc3s2)c1 | 5.02% |
| O=C(NCCCn1ccnc1)c1csc2ccccc12 | -14.3% |
| O=C(c1ccco1)C(O)c1ccco1 (stereo not drawn) | 25.4% |
| CCCS(=O)(=O)N1CCN(Cc2ccccc2OCC)CC1 | -10.8% |

| Structure (SMILES) | hERG current change (%, negative = inhibition) at 10uM |
| --- | --- |
| Cc1cc(C(=O)OCC(=O)Nc2ccc(F)c(F)c2F)c(C)o1 | 19.9% |
| O=C(NCCCNc1ccc([N+](=O)[O-])cc1)C(F)(F)F | -8.32% |
| O=C(COc1ccc(F)cc1)N1CCC(Cc2ccccc2)CC1 | -19.5% |
| CN(CC(=O)Nc1ccc(F)cc1)C(=O)COC(=O)c1cc([N+](=O)[O-])ccc1N1CCOCC1 | -64.3% |
| O=C(CSc1nc2c([nH]c3ccccc32)c(=O)n1-c1ccccc1)NCC1CCCO1 (stereo not drawn) | 3.52% |
| C/C=C(/C)C(=O)OC(C)(C)[C@@H]1Cc2c(ccc3ccc(=O)oc23)O1 | -0.947% |
| COc1cccc(CNC(=O)c2n[nH]c3ccccc23)c1 | 14% |
| C/C(=N\NC(=O)CNc1cccc(Cl)c1C)c1cccs1 | 10.4% |
| CC1CCCCC1NC(=O)CN1CCN(S(=O)(=O)c2ccc(Br)s2)CC1 (stereo not drawn) | 14.3% |
| CS(=O)(=O)N1CCc2cc(-c3csc(NCC4CCCO4)n3)ccc21 (stereo not drawn) | -7.28% |
| Cc1cc(C)c(SCCc2ccncc2)c(C)c1 | 0.142% |
| CC(=O)c1cccc(NC(=O)CSc2nnc(C(C)N(C)C)n2Cc2ccccc2)c1 (stereo not drawn) | -20.1% |
| Cc1nc([N+](=O)[O-])cn1CC(=O)c1ccccc1 | 8.41% |
| Cc1ccc(NC(=O)Nc2ccc(F)cc2)cc1Cl | 16.3% |
| CC(=O)c1cccc(N(CC(=O)NC2CCCCC2)C(=O)Cn2nnc(-c3ccccc3)n2)c1 | -2.86% |
| COc1cccc(NC(=O)Nc2nc(-c3ccc(OC)c(OC)c3)cs2)c1 | -0.837% |
| COc1ccccc1NC(=S)NNC(=O)c1ccc(Cl)cc1Cl | 12.4% |
| Cc1c(NC(=O)C(C)Oc2ccc(Br)cc2Cl)c(=O)n(-c2ccccc2)n1C (stereo not drawn) | -49.7% |
| CCCC(C)C(=O)OCC(=O)Nc1ccc(Br)cc1 (stereo not drawn) | 13.3% |
| CC(/C=N/NC(=O)c1cccc([N+](=O)[O-])c1)=C\c1ccccc1 | -6.67% |
| COc1cc(C(Nc2ccccn2)c2c(NC(=O)c3ccco3)sc(C)c2C)cc(OC)c1OC (stereo not drawn) | -3.1% |
| CCOC(=O)Cc1csc(NC(=O)c2ccc(Br)s2)n1 | -11.5% |
| CC(C)(C)c1ccc(C(=O)NCC(=O)N/N=C/c2ccccc2OCC(=O)O)cc1 | 6.91% |

| Structure (SMILES) | hERG current change (%, negative = inhibition) at 10uM |
| --- | --- |
| CC(C)c1nc(C(=O)N2CCCC(CCC(=O)N(C)CCc3ccccn3)C2)cs1 (stereo not drawn) | 8.87% |
| Cc1ccc(CSc2nc3c(c(N(C)C)n2)CCCC3)cc1 | -5.63% |
| Fc1ccc(N2CCN(c3ccc4c(C(F)(F)F)cc(C(F)(F)F)nc4n3)CC2)cc1 | -18.5% |
| Cc1cccc(NC(=O)CSc2nnc(-c3cc(C)[nH]n3)n2N)c1 | -29.1% |
| COc1ccccc1C(=O)NCCC(=O)Nc1ccncc1 | 4.24% |
| Cc1ccc(C(=O)N2CC(C)CC(C)C2)cc1S(=O)(=O)N1CCCCC1 (stereo not drawn) | -30.2% |
| O=c1c(-c2ccccc2)n[nH]c2ccccc12 | -1.62% |
| COc1ccc(NC(=S)N(CCN2CCOCC2)C2CCN(C(C)=O)CC2)cc1Cl | 3.21% |
| Cc1ccc(-c2nnc(N3CCOCC3)c3ccccc23)cc1S(N)(=O)=O | 17.3% |
| O=C(NCc1cccnc1)c1ccccc1[N+](=O)[O-] | 12.6% |
| Fc1ccccc1/C=N/Nc1nn[nH]n1 | 13% |
| O=C(CSc1cccc2cccnc12)OCC(=O)c1ccccc1 | 8.7% |
| CC1=CC2=NC(=O)/C(=C/c3cccs3)C(=N)N2O1 | 19.7% |
| COc1ccc(NC(=O)c2cccs2)cn1 | 11.1% |
| N#C/C(=C\c1ccc(O)cc1)c1nc2ccccc2o1 | 1.18% |
| CC1=NN(c2ccccc2)C(=O)/C1=C\C=C\c1ccccc1 | 4.84% |
| Cc1nn(-c2ccccc2)c(Cl)c1C(=O)NCC(C)C | -5.02% |
| COc1ccccc1CCN=C(N)NS(=O)(=O)c1cccs1 | 12.5% |
| CCOc1cc2c3c(c1)C(C)=CC(C)(C)N3C(=O)C2=O | 21.7% |
| CCCCC(=O)N(c1ccc(OCC)cc1)C1C=CS(=O)(=O)C1 (stereo not drawn) | 6.86% |
| CCN(CC)S(=O)(=O)c1ccc(Cl)c(NC2=NCCCCC2)c1 | -1.64% |

Source: PMC4336329 (PLoS ONE, 2015)
